Reference: paper PMC4575093
No constants are given. Whether binding was seen depends on the method and setting. Binding seen in cells or lysates may run through a third protein. Some entries that bind do so weakly or less than the wild type. For part of these data: Tags and fused reporters may be left off the sequences shown. Values belong to the binder of their own block, whether it stands above or below them.

How the values were obtained:
[1] = target: T1, endogenous H-rev107 (Huh7 cells) (human (endogenous in Huh7)) (UniProt P53816); assay: co-IP; endogenous proteins, Huh7 lysate (5 mg protein); anti-H-rev107 or anti-POR antibody (normal rabbit IgG as control) 12 h at 4°C, protein G plus/protein A agarose; western blot
T1 sequence: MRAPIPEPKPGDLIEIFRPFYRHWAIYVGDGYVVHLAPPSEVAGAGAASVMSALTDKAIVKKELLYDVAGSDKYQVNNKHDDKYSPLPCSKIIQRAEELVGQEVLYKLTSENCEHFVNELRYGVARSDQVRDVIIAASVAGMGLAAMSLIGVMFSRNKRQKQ

GST-H-rev107_(1–132) = target: T2, GST-H-rev107_(1–132) (UniProt Q8R3U1); assay: pull-down; purified GST fusion (10 μg GST-POR deletions; GST-H-rev107 deletion variants) as bait, partner in vitro transcribed and translated; 4°C for 2 h in 50 mM HEPES pH 7.4, 150 mM NaCl, 1 mM EDTA, 1 mM EGTA, 10% glycerol, 1% Triton X-100; western blot with anti-FLAG or anti-MYC; only the target purified
T2 sequence: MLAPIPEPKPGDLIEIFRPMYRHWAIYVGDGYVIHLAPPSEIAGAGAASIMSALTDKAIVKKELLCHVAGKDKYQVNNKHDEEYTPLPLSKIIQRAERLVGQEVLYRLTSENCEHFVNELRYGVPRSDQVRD

GST-H-rev107 = target: T3, GST-H-rev107 (UniProt Q8R3U1); assay: as above
T3 sequence: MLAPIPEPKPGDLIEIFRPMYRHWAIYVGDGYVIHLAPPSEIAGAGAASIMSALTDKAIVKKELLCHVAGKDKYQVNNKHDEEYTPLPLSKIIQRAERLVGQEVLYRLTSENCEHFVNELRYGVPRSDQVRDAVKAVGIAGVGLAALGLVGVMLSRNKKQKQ

GST-H-rev107_(1–48) = target: T4, GST-H-rev107_(1–48) (UniProt Q8R3U1); assay: as above
T4 sequence: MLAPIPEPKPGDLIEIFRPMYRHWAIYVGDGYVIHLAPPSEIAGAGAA

H-rev107-myc = target: T5, H-rev107-myc (UniProt Q8R3U1); assay: co-IP; HtTA cells co-transfected with H-rev107-myc (wild type or point mutant) and POR-Flag for 24 h; modified RIPA lysate (500 μg protein); anti-MYC or anti-FLAG antibody, protein G plus/protein A agarose, 4°C; western blot with anti-FLAG or anti-MYC
T5 sequence: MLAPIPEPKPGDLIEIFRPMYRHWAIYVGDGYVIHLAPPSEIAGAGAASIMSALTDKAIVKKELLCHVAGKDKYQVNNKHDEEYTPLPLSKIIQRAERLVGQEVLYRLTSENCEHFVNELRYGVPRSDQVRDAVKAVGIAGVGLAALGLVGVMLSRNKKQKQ

[2] = target: T6, endogenous POR (Huh7 cells) (human (endogenous in Huh7)) (UniProt P16435); assay: co-IP; endogenous proteins, Huh7 lysate (5 mg protein); anti-H-rev107 or anti-POR antibody (normal rabbit IgG as control) 12 h at 4°C, protein G plus/protein A agarose; western blot
T6 sequence: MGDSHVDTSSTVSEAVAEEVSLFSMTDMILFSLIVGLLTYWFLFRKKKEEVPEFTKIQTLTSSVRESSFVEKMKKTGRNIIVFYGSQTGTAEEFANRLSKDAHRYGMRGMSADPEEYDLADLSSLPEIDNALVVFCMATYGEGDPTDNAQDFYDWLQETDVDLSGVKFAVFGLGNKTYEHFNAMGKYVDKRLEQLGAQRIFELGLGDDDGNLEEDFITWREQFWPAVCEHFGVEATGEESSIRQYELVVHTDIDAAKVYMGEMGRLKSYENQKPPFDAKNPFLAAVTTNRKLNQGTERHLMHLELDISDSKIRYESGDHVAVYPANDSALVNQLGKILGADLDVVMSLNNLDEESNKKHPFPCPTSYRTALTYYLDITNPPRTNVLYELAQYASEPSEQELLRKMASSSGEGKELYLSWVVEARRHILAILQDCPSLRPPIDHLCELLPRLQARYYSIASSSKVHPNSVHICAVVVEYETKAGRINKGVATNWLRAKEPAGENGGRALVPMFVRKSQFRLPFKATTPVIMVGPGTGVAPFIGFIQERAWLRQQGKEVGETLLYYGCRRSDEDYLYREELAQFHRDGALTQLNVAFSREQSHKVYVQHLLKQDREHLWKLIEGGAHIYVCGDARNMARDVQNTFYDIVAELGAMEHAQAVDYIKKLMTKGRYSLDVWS

POR-Flag (mouse) = target: T7, POR-Flag (mouse) (UniProt P37040); assay: co-IP; HtTA cells co-transfected with H-rev107-myc (wild type or point mutant) and POR-Flag for 24 h; modified RIPA lysate (500 μg protein); anti-MYC or anti-FLAG antibody, protein G plus/protein A agarose, 4°C; western blot with anti-FLAG or anti-MYC
T7 sequence: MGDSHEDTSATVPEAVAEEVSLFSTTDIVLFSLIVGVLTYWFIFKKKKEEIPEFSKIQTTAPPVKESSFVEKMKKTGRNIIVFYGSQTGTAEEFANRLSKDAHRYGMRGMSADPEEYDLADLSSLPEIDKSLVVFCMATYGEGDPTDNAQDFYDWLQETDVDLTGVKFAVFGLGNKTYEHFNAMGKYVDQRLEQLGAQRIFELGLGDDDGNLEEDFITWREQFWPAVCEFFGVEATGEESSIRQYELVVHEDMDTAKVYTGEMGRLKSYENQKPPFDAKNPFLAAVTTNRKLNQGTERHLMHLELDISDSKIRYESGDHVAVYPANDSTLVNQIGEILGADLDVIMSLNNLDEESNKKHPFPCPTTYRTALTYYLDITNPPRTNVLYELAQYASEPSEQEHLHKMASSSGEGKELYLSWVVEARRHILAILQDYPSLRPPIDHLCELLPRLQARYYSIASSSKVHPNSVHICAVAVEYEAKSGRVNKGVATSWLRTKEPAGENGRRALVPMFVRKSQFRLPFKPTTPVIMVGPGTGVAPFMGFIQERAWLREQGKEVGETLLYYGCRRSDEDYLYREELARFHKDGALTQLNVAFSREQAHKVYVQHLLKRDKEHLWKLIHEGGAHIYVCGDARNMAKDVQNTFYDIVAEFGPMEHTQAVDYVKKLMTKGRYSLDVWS

B1: endogenous POR (Huh7 cells) (enzyme, UniProt P16435 1-677)
chain: MGDSHVDTSSTVSEAVAEEVSLFSMTDMILFSLIVGLLTYWFLFRKKKEEVPEFTKIQTLTSSVRESSFVEKMKKTGRNIIVFYGSQTGTAEEFANRLSKDAHRYGMRGMSADPEEYDLADLSSLPEIDNALVVFCMATYGEGDPTDNAQDFYDWLQETDVDLSGVKFAVFGLGNKTYEHFNAMGKYVDKRLEQLGAQRIFELGLGDDDGNLEEDFITWREQFWPAVCEHFGVEATGEESSIRQYELVVHTDIDAAKVYMGEMGRLKSYENQKPPFDAKNPFLAAVTTNRKLNQGTERHLMHLELDISDSKIRYESGDHVAVYPANDSALVNQLGKILGADLDVVMSLNNLDEESNKKHPFPCPTSYRTALTYYLDITNPPRTNVLYELAQYASEPSEQELLRKMASSSGEGKELYLSWVVEARRHILAILQDCPSLRPPIDHLCELLPRLQARYYSIASSSKVHPNSVHICAVVVEYETKAGRINKGVATNWLRAKEPAGENGGRALVPMFVRKSQFRLPFKATTPVIMVGPGTGVAPFIGFIQERAWLRQQGKEVGETLLYYGCRRSDEDYLYREELAQFHRDGALTQLNVAFSREQSHKVYVQHLLKQDREHLWKLIEGGAHIYVCGDARNMARDVQNTFYDIVAELGAMEHAQAVDYIKKLMTKGRYSLDVWS
- binding [1]: binds

B3: POR-Flag (enzyme, UniProt P37040 1-678)
chain: MGDSHEDTSATVPEAVAEEVSLFSTTDIVLFSLIVGVLTYWFIFKKKKEEIPEFSKIQTTAPPVKESSFVEKMKKTGRNIIVFYGSQTGTAEEFANRLSKDAHRYGMRGMSADPEEYDLADLSSLPEIDKSLVVFCMATYGEGDPTDNAQDFYDWLQETDVDLTGVKFAVFGLGNKTYEHFNAMGKYVDQRLEQLGAQRIFELGLGDDDGNLEEDFITWREQFWPAVCEFFGVEATGEESSIRQYELVVHEDMDTAKVYTGEMGRLKSYENQKPPFDAKNPFLAAVTTNRKLNQGTERHLMHLELDISDSKIRYESGDHVAVYPANDSTLVNQIGEILGADLDVIMSLNNLDEESNKKHPFPCPTTYRTALTYYLDITNPPRTNVLYELAQYASEPSEQEHLHKMASSSGEGKELYLSWVVEARRHILAILQDYPSLRPPIDHLCELLPRLQARYYSIASSSKVHPNSVHICAVAVEYEAKSGRVNKGVATSWLRTKEPAGENGRRALVPMFVRKSQFRLPFKPTTPVIMVGPGTGVAPFMGFIQERAWLREQGKEVGETLLYYGCRRSDEDYLYREELARFHKDGALTQLNVAFSREQAHKVYVQHLLKRDKEHLWKLIHEGGAHIYVCGDARNMAKDVQNTFYDIVAEFGPMEHTQAVDYVKKLMTKGRYSLDVWS
- binding (H-rev107-myc): binds

B7: H-rev107 H23L (myc-tagged) (protein, UniProt Q8R3U1 1-162)
chain: MLAPIPEPKPGDLIEIFRPMYRLWAIYVGDGYVIHLAPPSEIAGAGAASIMSALTDKAIVKKELLCHVAGKDKYQVNNKHDEEYTPLPLSKIIQRAERLVGQEVLYRLTSENCEHFVNELRYGVPRSDQVRDAVKAVGIAGVGLAALGLVGVMLSRNKKQKQ
- binding (POR-Flag (mouse)): binds

The next lines start with the values.

- binding (GST-H-rev107_(1–132)): binds
- binding (GST-H-rev107): binds
- binding (GST-H-rev107_(1–48)): no binding
B2: POR-FLAG, in vitro transcribed and translated (enzyme, UniProt P37040 1-678)
chain: MGDSHEDTSATVPEAVAEEVSLFSTTDIVLFSLIVGVLTYWFIFKKKKEEIPEFSKIQTTAPPVKESSFVEKMKKTGRNIIVFYGSQTGTAEEFANRLSKDAHRYGMRGMSADPEEYDLADLSSLPEIDKSLVVFCMATYGEGDPTDNAQDFYDWLQETDVDLTGVKFAVFGLGNKTYEHFNAMGKYVDQRLEQLGAQRIFELGLGDDDGNLEEDFITWREQFWPAVCEFFGVEATGEESSIRQYELVVHEDMDTAKVYTGEMGRLKSYENQKPPFDAKNPFLAAVTTNRKLNQGTERHLMHLELDISDSKIRYESGDHVAVYPANDSTLVNQIGEILGADLDVIMSLNNLDEESNKKHPFPCPTTYRTALTYYLDITNPPRTNVLYELAQYASEPSEQEHLHKMASSSGEGKELYLSWVVEARRHILAILQDYPSLRPPIDHLCELLPRLQARYYSIASSSKVHPNSVHICAVAVEYEAKSGRVNKGVATSWLRTKEPAGENGRRALVPMFVRKSQFRLPFKPTTPVIMVGPGTGVAPFMGFIQERAWLREQGKEVGETLLYYGCRRSDEDYLYREELARFHKDGALTQLNVAFSREQAHKVYVQHLLKRDKEHLWKLIHEGGAHIYVCGDARNMAKDVQNTFYDIVAEFGPMEHTQAVDYVKKLMTKGRYSLDVWS

- binding [2]: binds
B4: endogenous H-rev107 (Huh7 cells) (protein, UniProt P53816 1-162)
chain: MRAPIPEPKPGDLIEIFRPFYRHWAIYVGDGYVVHLAPPSEVAGAGAASVMSALTDKAIVKKELLYDVAGSDKYQVNNKHDDKYSPLPCSKIIQRAEELVGQEVLYKLTSENCEHFVNELRYGVARSDQVRDVIIAASVAGMGLAAMSLIGVMFSRNKRQKQ

- binding (POR-Flag (mouse)): binds
B5: H-rev107-myc (protein, UniProt Q8R3U1 1-162)
chain: MLAPIPEPKPGDLIEIFRPMYRHWAIYVGDGYVIHLAPPSEIAGAGAASIMSALTDKAIVKKELLCHVAGKDKYQVNNKHDEEYTPLPLSKIIQRAERLVGQEVLYRLTSENCEHFVNELRYGVPRSDQVRDAVKAVGIAGVGLAALGLVGVMLSRNKKQKQ

- binding (POR-Flag (mouse)): binds
B6: H-rev107 C113S (myc-tagged) (protein, UniProt Q8R3U1 1-162)
chain: MLAPIPEPKPGDLIEIFRPMYRHWAIYVGDGYVIHLAPPSEIAGAGAASIMSALTDKAIVKKELLCHVAGKDKYQVNNKHDEEYTPLPLSKIIQRAERLVGQEVLYRLTSENSEHFVNELRYGVPRSDQVRDAVKAVGIAGVGLAALGLVGVMLSRNKKQKQ
